Measurements as given in PubChem BioAssay (Tox21).
“And” between values parts separate entries of the source, which are not always exact repeats. Equal values may be shown once. The shares of active, inactive and inconclusive entries below differ from those in the screen. For some of these results: Where the call is inconclusive, the potency comes from a doubtful curve fit. Where a structure was tested more than once in an assay, its records may differ in their call. The source made the active and inactive calls. Unless noted, the call rests on the fitted dose curve; in most records, active means well fitted curve in the direction sought with a large enough effect in the repeat runs; inconclusive means weak or mixed curves; inactive means no such curve, though single readings can be large; an effect the other way counts as inactive or inconclusive.

Assays:
[1] = target: Bile acid receptor (Homo sapiens) (UniProt Q96RI1); assay: qHTS assay to identify small molecule antagonists of the farnesoid-X-receptor (FXR) signaling pathway (AID 743217; active means well fitted inhibition curve with a large enough effect in the signal ratio in the repeat runs, not every such curve was filed as active; inconclusive means weak or mixed curves, or effect the other way; inactive means no such curve, though single readings can be large or run the other way; the % refers to the signal ratio; further: potency means the concentration at half of the fitted maximal effect; on activity change, negative = inhibition: on the % scale 0 is the no-effect control and ±100 the full control effect); details: HEK293T FXR-UAS-bla, beta-lactamase ratio, CDCA-stimulated, 16 h; activity change, negative = inhibition: at 62.6 µM (top of the series) unless noted
Method in brief: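 Read-out: beta-lactamase FRET fluorescence (LiveBLAzer B/G substrate, 2 h, room temperature) in GeneBLAzer FXR-UAS-bla HEK 293T cells. Compounds were co-dosed with 50 uM chenodeoxycholic acid (final) and incubated 16 h at 37 °C.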

[2] = qHTS assay to identify small molecule agonists of H2AX (AID 1224845; active means well fitted activation curve with a large enough effect in the signal ratio in the repeat runs, not every such curve was filed as active; inconclusive means weak or mixed curves; the % refers to the signal ratio; further: potency means the concentration at half of the fitted maximal effect; on activation (H2AX phosphorylation): on the % scale 0 is the no-effect control and ±100 the full control effect); details: CHO-K1 phospho-H2AX Ser139 HTRF, 3 h; activation (H2AX phosphorylation): at 154 µM (top of the series) unless noted
Method in brief: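 Wild-type CHO-K1 cells plated overnight, then exposed 3 hr at 37C to compounds at 15 concentrations (0.76% DMSO). Lysed, then HTRF anti-pH2AX(S139)-cryptate/anti-H2AX-d2 detection after 24 hr at room temperature; emissions 665 and 620 nm.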

[3] = qHTS assay to identify small molecule agonists of the estrogen related receptor (ERR) signaling pathway from Tox21 library (AID 1224849; calls by dose curve; further: on the % scale 0 is the no-effect control and ±100 the full control effect; nearly all actives have a fitted effect of over 15% in size); details: ERR reporter cell line, ONE-Glo luciferase, 18 h; at 92.4 µM (top of the series) unless noted
Method in brief: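 Luminescence readout (ONE-Glo, 30 min RT) after 18 h compound exposure at 37 C of NTP-supplied ERR reporter cells; cells were plated 6 h before compound addition by pin tool.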

[4] = A CellTox Green Cytotoxicity Assay to monitor cytotoxicity in HEK293 cells - 40 hour (AID 1224871); further: nearly all actives have a fitted effect of over 45% in size; further: potency means the concentration at half of the fitted maximal effect
Method in brief: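 Read-out: fluorescence of a cell-impermeant cyanine dye staining DNA of dead cells, proportional to cytotoxicity. HEK293, 600 cells/well with reagent, compound (23 nL DMSO) added after 5 h; reads at 0, 8, 16, 24, 32, 40 h.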

[5] = qHTS assay to identify small molecule HDAC inhibitors - cell viability counter screen (AID 1259365); further: on the % scale 0 is the no-effect control and ±100 the full control effect; nearly all actives have a fitted effect of over 50% in size
Method in brief: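 CellTiter-Glo luminescence (30 min, room temperature) reported viability after a 2 h compound exposure at 37 C. Cells: wild-type HCT-116, 1,500 per well, seeded the night before.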

[6] = qHTS assay to identify small molecule agonists of the sonic hedgehog signaling (Shh) pathway - cell viability counter screen (AID 1259366); further: nearly all actives have a fitted effect of over 50% in size; further: potency means the concentration at half of the fitted maximal effect
Method in brief: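 Cytotoxicity counter screen: CellTiter-Fluor reagent added after 23 h compound exposure, then 1 h at 37C and fluorescence read. Cells were 3T3 Gli1-Luc, seeded 2,000 per well and dosed 4 h post-plating.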

[7] = target: Cytochrome P450 3A4 (Homo sapiens) (UniProt P08684); assay: Cytochrome P450 Family 3 Subfamily A Member 4 (CYP3A4) small molecule antagonists: luciferase reporter qHTS assay (AID 1671201); further: nearly all actives have a fitted effect of over 50% in size; further: potency means the concentration at half of the fitted maximal effect
Method in brief: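 Recombinant human CYP3A4 converts a proluciferin substrate to luciferin over 1 h at room temperature after NADPH regeneration solution is added (compound preincubated 10 min); detection reagent stops reaction, luminescence read 20 min later as relative units.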

[8] = qHTS assay to identify small molecule agonists of the hypoxia (HIF-1) signaling pathway (AID 1224846; active means well fitted activation curve with a large enough effect in the signal ratio in the repeat runs, not every such curve was filed as active; inconclusive means weak or mixed curves; the % refers to the signal ratio; further: potency means the concentration at half of the fitted maximal effect); details: HRE-bla ME-180 cells, beta-lactamase ratio, 17 h; activation: at 76.8 µM (top of the series) unless noted
Method in brief: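 Beta-lactamase FRET read-out (CCF4-AM substrate) from ME-180 cells carrying an HRE-driven bla reporter, after 17 hrs compound exposure at 37C/5% CO2. Cells were seeded at 2,000 per well in 0.5% dialyzed FBS medium and preincubated 5 hrs.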

[9] = target: Acetylcholinesterase (Homo sapiens) (UniProt P22303); assay: Acetylcholinesterase (AChE) small molecule antagonists: fluorescence cell-based qHTS assay (AID 1347398; calls by dose curve; further: potency means the concentration at half of the fitted maximal effect; nearly all actives have a fitted effect of over 50% in size); details: Potency: AChE activity
Method in brief: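 Cellular AChE inhibition: SH-SY5Y cells treated with test chemical for 30 min at 37 C, then acetylthiocholine hydrolysis followed over 40 min at room temperature via thiocholine-reactive Thiolite Green fluorescence (490/520 nm).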

[10] = qHTS RealTime-Glo MT Cell Viability Assay in HepG2 cells - 32 hour (AID 1224877); further: nearly all actives have a fitted effect of over 55% in size; further: potency means the concentration at half of the fitted maximal effect
Method in brief: (§1)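 qHTS, HepG2, 600 cells/well, RealTime-Glo (NanoLuc + prosubstrate) added with cells; 5 h preincubation; DMSO compound addition; 37 C; luminescence at 0/8/16/24/32/40 h.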

[11] = qHTS assay to identify small molecule antagonists of the farnesoid-X-receptor (FXR) signaling pathway - cell viability counter screen (AID 743221; active means well fitted cell-killing curve with a large enough effect in the repeat runs, not every such curve was filed as active; inconclusive means weak or mixed curves, or effect the other way; inactive means no such curve, though single readings can be large or run the other way; further: nearly all actives have a fitted effect of over 50% in size; further: potency means the concentration at half of the fitted maximal effect; on activity change, negative = cytotoxicity: on the % scale 0 is the no-effect control and ±100 the full control effect); details: FXR-bla HEK293T viability, CellTiter-Glo luminescence, 16 h; activity change, negative = cytotoxicity: at 62.6 µM (top of the series) unless noted
Method in brief: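 Cytotoxicity counter screen run in the FXR-bla reporter wells: HEK 293T cells exposed to compound with 50 uM (final) chenodeoxycholic acid for 16 h, 37 C, then viability measured by CellTiter-Glo luminescence after 30 min, room temperature.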

[12] = qHTS assay to identify small molecule antagonists of the sonic hedgehog signaling (Shh) pathway - cell viability counter screen (AID 1259367); further: nearly all actives have a fitted effect of over 55% in size; further: potency means the concentration at half of the fitted maximal effect
Method in brief: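 Cytotoxicity was assessed in parallel with Shh reporter activity by measuring live-cell protease fluorescence (CellTiter-Fluor) in NIH/3T3 cells stably carrying Gli1-Luc, treated with compound under conditioned medium stimulation for 23 hr plus 1 hr reagent incubation.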

[13] = qHTS RealTime-Glo MT Cell Viability Assay in HEK293 cells - 40 hour (AID 1224874); details: RealTime-Glo luminescence; max response: hits give low values; further: nearly all actives have a fitted effect of over 50% in size; further: potency means the concentration at half of the fitted maximal effect; on max response: on the % scale 0 is the no-effect control and ±100 the full control effect
Method in brief: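 Luminescence readout at each listed time point; HEK293, 600 cells/well, RealTime-Glo MT reagent added with cells; compounds pinned (23 nL in DMSO) after 5 h at 37 C; continuous culture at 37 C.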

[14] = qHTS RealTime-Glo MT Cell Viability Assay in HepG2 cells - 16 hour (AID 1224885)
Method in brief: as §1

[15] = target: Acetylcholinesterase (Homo sapiens) (UniProt P22303); assay: Acetylcholinesterase (AChE) small molecule antagonists: colormetric cell-based qHTS assay (AID 1347395; calls by dose curve; further: nearly all actives have a fitted effect of over 30% in size; further: potency means the concentration at half of the fitted maximal effect)
Method in brief: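 Colorimetric readout: DTNB quantifies thiocholine from acetylthiocholine hydrolysed by endogenous AChE of SH-SY5Y cells (2,000/well, plated overnight). Compound pretreatment 30 min, substrate incubation 90 min, both 37 C.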

[16] = qHTS RealTime-Glo MT Cell Viability Assay in HepG2 cells - 0 hour (AID 1224889); further: nearly all actives have a fitted effect of over 50% in size; further: potency means the concentration at half of the fitted maximal effect
Method in brief: as §1

[17] = qHTS assay to identify small molecule antagonists of the TGF-beta/Smad signaling pathway (AID 1346924; active means well fitted inhibition curve with a large enough effect in the signal ratio in the repeat runs, not every such curve was filed as active; inconclusive means weak or mixed curves; the % refers to the signal ratio); details: SBE-bla HEK293T, TGF-beta/Smad reporter, beta-lactamase ratio; activity, negative = inhibition: at 76.8 µM (top of the series) unless noted
Method in brief: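 Read-out was FRET-substrate fluorescence (405 nm excitation; 460 and 530 nm emission) after 2 h at room temperature. Before that, cells carrying a Smad-binding-element beta-lactamase reporter in HEK 293T had been stimulated 5 h at 37 C with TGF-beta1 (0.25 ng/mL addition solution) in the presence of test compound.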

[18] = qHTS assay to identify small molecule antagonists of the TGF-beta/Smad signaling pathway - cell viability counter screen (AID 1346824); further: nearly all actives have a fitted effect of over 50% in size; further: potency means the concentration at half of the fitted maximal effect
Method in brief: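 SBE-bla HEK 293T cells were plated overnight at 37 C, then given compounds in DMSO plus TGF-beta1 (added as 0.25 ng/mL solution) for 5 hr. After the bla read, CellTiter-Glo was added to the same wells and luminescence read after 30 min at room temperature.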

[19] = qHTS assay to identify small molecule that activate the aryl hydrocarbon receptor (AhR) signaling pathway - cell viability counter screen (AID 743086); further: nearly all actives have a fitted effect of over 45% in size; further: potency means the concentration at half of the fitted maximal effect
Method in brief: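 HepG2-AhR-luc (HG2L7.5c1) cells, 4000/well, were preincubated 5 h at 37C, exposed to compound in qHTS format for 24 hr at 37C, then given CellTiter-Fluor for 30 min; viability was read as fluorescence in the reporter wells.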

[20] = A CellTox Green Cytotoxicity Assay to monitor cytotoxicity in HepG2 cells - 8 hour (AID 1224890); further: on the % scale 0 is the no-effect control and ±100 the full control effect; nearly all actives have a fitted effect of over 45% in size
Method in brief: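 HepG2, 600 cells/well premixed w/ CellTox Green; 5 h settle, 37 C/5% CO2; pintool cpd add (DMSO); 37 C, 40 h; fluorescence read at 0, 8, 16, 24, 32, 40 h.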
Tags describe the fitted curve by direction and shape or compound fluorescence and quenching.

Sequence of UniProt Q96RI1 (Q96RI1 whole entry, looked up): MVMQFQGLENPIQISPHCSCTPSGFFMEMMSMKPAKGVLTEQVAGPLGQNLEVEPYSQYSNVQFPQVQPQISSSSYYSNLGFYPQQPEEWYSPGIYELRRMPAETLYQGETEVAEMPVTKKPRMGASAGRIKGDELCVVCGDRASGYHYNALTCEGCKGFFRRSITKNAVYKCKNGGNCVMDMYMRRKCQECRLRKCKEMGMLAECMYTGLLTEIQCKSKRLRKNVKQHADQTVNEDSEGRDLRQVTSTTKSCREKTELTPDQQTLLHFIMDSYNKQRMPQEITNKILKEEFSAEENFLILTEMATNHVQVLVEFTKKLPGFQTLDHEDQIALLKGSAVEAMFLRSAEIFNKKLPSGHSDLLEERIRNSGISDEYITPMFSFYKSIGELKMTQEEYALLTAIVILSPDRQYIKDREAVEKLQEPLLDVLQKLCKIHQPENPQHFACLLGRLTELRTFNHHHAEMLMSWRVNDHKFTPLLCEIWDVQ
Sequence of UniProt P22303 (P22303 whole entry, looked up): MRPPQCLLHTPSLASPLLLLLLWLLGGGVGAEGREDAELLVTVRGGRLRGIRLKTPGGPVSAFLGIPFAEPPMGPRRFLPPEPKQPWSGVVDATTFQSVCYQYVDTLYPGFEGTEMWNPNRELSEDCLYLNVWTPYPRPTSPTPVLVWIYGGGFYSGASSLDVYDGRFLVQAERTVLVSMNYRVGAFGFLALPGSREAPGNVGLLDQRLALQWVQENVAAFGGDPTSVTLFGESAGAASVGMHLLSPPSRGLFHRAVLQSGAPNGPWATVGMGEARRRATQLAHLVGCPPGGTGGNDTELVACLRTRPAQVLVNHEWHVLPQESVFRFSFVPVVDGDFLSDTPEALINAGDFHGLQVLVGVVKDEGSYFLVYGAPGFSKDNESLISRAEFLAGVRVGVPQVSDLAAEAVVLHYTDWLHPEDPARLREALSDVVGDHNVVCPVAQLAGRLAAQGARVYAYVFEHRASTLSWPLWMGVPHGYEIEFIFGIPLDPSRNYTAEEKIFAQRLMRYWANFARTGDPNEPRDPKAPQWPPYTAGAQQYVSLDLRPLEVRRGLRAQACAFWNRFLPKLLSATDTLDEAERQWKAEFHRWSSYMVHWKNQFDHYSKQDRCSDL
Sequence of UniProt P08684 (P08684 whole entry, looked up): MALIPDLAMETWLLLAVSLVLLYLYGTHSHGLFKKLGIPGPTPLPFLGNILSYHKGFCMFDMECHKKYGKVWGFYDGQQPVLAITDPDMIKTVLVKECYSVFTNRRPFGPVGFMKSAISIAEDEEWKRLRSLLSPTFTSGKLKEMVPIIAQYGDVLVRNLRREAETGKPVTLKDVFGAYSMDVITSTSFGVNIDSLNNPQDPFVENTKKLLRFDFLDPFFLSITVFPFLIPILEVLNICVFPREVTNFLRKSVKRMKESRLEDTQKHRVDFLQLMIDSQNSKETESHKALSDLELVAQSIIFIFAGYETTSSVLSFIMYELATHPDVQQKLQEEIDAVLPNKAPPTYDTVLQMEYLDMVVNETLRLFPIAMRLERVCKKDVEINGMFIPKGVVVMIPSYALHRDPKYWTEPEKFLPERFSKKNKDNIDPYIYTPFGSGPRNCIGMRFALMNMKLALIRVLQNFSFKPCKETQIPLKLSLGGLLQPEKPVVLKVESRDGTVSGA

CC(O)CN1CCN(CC(=O)[O-])CCN(CC(=O)[O-])CCN(CC(=O)[O-])CC1.[Gd+3] (stereo not given)
Potency [1]: inactive
Potency [2]: inactive

CCc1cc2c(s1)-n1c(C)nnc1CN=C2c1ccccc1Cl
activity change, positive = activation [3]: inconclusive: 25.2% [at 42.5 µM]
Potency [4]: inconclusive: 26.8 µM [activator, single point]
Potency [5]: inactive
Potency [6]: inconclusive: 13.3 µM [cytotoxic, partial curve, poor fit]

CCN(CC)CCOC(=O)C(O)(c1ccccc1)c1ccccc1
Potency [7]: inconclusive: 7.76 µM [inhibitor, full curve]

CC1N=C(N)OC1c1ccccc1 (stereo not given)
Potency [8]: inconclusive: 3.02 µM [falling, partial curve, poor fit]

C[C@@]12C(=O)OC(=O)[C@]1(C)C1CCC2O1
Potency [2]: active: 22 µM

Fc1cc(Br)ccc1CBr
Potency [9]: inconclusive: 0.871 µM [inhibitor, partial curve, poor fit]

O=[N+]([O-])c1cc(Cl)c(Cl)cc1Cl
Potency [4]: inconclusive: 54.7 µM [activator, single point]
Potency [10]: inactive

NC(=Nc1ccccc1)Nc1ccccc1
activity change, positive = activation [3]: active: 17.6%

O=C(O)C(Cl)(Cl)Br
Potency [1]: inactive
Potency [10]: inactive

CCn1cc[n+](C)c1 (tested in a mixture with another compound)
Potency [11]: inconclusive: 54.7 µM [falling, partial curve, poor fit]

CN(C)C1CCCCC1
activity change, positive = activation [3]: inconclusive: 12.8%

C[C@H](N)C(=O)c1ccccc1
Potency [1]: inactive
Potency [8]: inconclusive: 20.6 µM [falling, partial curve, poor fit]

CCC1(c2cccc(O)c2)CCCCN(C)C1 (stereo not given)
Potency [12]: inconclusive: 13.3 µM [cytotoxic, single point]

C[N+]1(C)[C@@H]2CC[C@H]1CC(OC(=O)C(CO)c1ccccc1)C2 (stereo not given in full)
Potency [11]: inactive
Potency [10]: inconclusive: 26.8 µM [cytotoxic, single point]

ClCCN1CCOCC1
max response [13]: inactive: -16.3%

CN(C)N
Potency [4]: inconclusive: 21.9 µM [activator, single point]
Potency [14]: inactive
Potency [15]: inactive

CC(=O)[O-].CC(=O)[O-].CC(=O)[O-].[Sb+3]
Potency [16]: inconclusive: 2.05 µM [cytotoxic, partial curve, poor fit]

C/C=C/CC#N
activity, negative = inhibition [17]: inconclusive: -0.889%

CN(C)C(=O)Nc1cccc(C(F)(F)F)c1
Potency [4]: inactive

CC(=[OH+])/C=C(/C)[O-].CC(=[OH+])/C=C(\C)[O-].CC(=[OH+])/C=C(\C)[O-].[Al]
Potency [13]: inconclusive: 54.9 µM [cytotoxic, partial curve, poor fit]

ClC(Cl)C(Cl)Cl
Potency [14]: inactive

C=CC(=O)N(C)C
max response [13]: inactive: -0.539%
Potency [10]: inconclusive: 0.195 µM [cytotoxic, single point]

[P]#[In]
Potency [18]: inactive
Potency [15]: inconclusive: 0.796 µM [inhibitor, single point]

ClCCN1CCCC1
Potency [8]: inactive
Potency [16]: inactive

CC(=O)O.CC(=O)O.CC(=O)O.CC(=O)O.CC(=O)O.CC(=O)O.CC(=O)O.O.O.[Cr].[Cr].[Cr]
Potency [11]: inactive
max response [13]: inactive: 2.64%
Potency [18]: inconclusive: 0.455 µM [cytotoxic, single point]

CC(=O)c1ccc(-c2ccccc2)cc1
Potency [12]: inactive

Nc1ccc(N)c2ccccc12
activity change, positive = activation [3]: inactive: -69.5%

C=CCOCC1CO1 (stereo not given)
Potency [1]: inconclusive: 60.1 µM [rising, partial curve, poor fit]

C[C@@H]1CN(C2CCC(C#N)(c3ccc(F)cc3)CC2)CC[C@]1(C(=O)O)c1ccccc1 (stereo not given in full)
Potency [2]: inactive

OC(Cn1cncn1)(c1ccc(F)cc1)c1ccccc1F (stereo not given)
Potency [6]: inactive

CC(C)(C)C(=O)C(Cl)Cl
Potency [16]: inactive

CCC(N)Cc1c[nH]c2ccccc12 (stereo not given)
Potency [19]: inactive

C=C(C)[C@H]1CN[C@H](C(=O)O)[C@H]1CC(=O)O
Potency [16]: inactive
Potency [15]: inconclusive: 17.4 µM [inhibitor, single point]

CC(=O)[O-].CC(=O)[O-].O.O.[Zn+2]
Potency [20]: inactive

COP(N)(=S)OC
Potency [7]: inactive

CC(C)[C@@]1(NC(=O)[C@@H]2C[C@@H]3c4cccc5[nH]cc(c45)C[C@H]3N(C)C2)O[C@@]2(O)[C@@H]3CCCN3C(=O)[C@H](Cc3ccccc3)N2C1=O
Potency [19]: inconclusive: 21.1 µM [falling, partial curve] and inconclusive: 29.8 µM [falling, partial curve]

Cc1nc(N)nc(N)n1
Potency [18]: inconclusive: 16 µM [rising, partial curve, poor fit]

C[N+](=O)[O-]
Potency [20]: inactive
activity, negative = inhibition [17]: inconclusive: 0.192%

CC[C@H](N)c1ccccc1
Potency [7]: active: 31.7 µM

CCCCCCCC(=O)Cl
Potency [14]: inactive

ClCC(Cl)Cl
Potency [15]: active: 36.8 µM
Potency [9]: inconclusive: 41.3 µM [inhibitor, partial curve]

C1=CCC=C1
Potency [5]: inactive

ClCc1ccccc1Cl
Potency [20]: inactive

COC1=CC=C2[C@H]3Cc4ccc(OC)c5c4[C@@]2(CCN3C)[C@H]1O5
Potency [19]: inconclusive: 68.3 µM [falling, single point]

CC(=O)OCC1=C(C(=O)O)N2C(=O)[C@@H](N)[C@H]2SC1
viability change, negative = cytotoxic [12]: inactive: 0.909% [at 19 µM]

COCC(=O)N(c1c(C)cccc1C)[C@H](C)C(=O)OC
Potency [18]: inconclusive: 0.219 µM [cytotoxic, single point]
activity, negative = inhibition [17]: inconclusive: -7.18%

CCC(=O)O[C@](Cc1ccccc1)(c1ccccc1)[C@H](C)CN(C)C
Potency [19]: inconclusive: 67.6 µM [falling, single point]

Oc1ccc(Cl)cc1
Potency [11]: inconclusive: 54.9 µM [falling, single point]

Cc1ccc([N+](=O)[O-])cc1
Potency [6]: inactive

C[N+]1(CCC(C(N)=O)(c2ccccc2)c2ccccc2)CCCCC1
Potency [12]: inactive
Potency [9]: inconclusive: 38.9 µM [inhibitor, partial curve, poor fit]
